Assay results: patent publication US20240092890A1 (JUNTENDO EDUCATIONAL FOUNDATION, published 2024)

T1: Ins 5 type mutant CALR protein on UT-7/TPO CALR Ins 5 cells (UniProt P27797 18-417)
T1 sequence (looked up): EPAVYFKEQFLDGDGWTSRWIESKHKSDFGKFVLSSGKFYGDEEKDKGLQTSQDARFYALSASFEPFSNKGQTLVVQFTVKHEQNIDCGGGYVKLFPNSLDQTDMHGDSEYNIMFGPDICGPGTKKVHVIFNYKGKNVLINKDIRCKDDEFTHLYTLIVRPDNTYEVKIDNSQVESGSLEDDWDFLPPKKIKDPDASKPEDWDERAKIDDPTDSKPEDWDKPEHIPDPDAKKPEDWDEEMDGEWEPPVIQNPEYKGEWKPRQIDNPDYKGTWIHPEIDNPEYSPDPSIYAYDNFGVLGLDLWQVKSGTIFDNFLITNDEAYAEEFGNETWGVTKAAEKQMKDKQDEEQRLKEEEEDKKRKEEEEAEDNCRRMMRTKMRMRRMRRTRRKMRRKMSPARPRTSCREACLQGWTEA

B1: Antibody 1 (bispecific antibody)
chain: QVQLQQSGAELVKPGSSVKISCKASGYTFTRNFIHWIKQQPGNGLEWIGWIFPGDGDTEYNQKFNGKATLTADKSSSTAYMQLSSLTSEDSAVYFCARGNYNYEYFDYWGQGVMVTVSSGGGGSGGGGSGGGGSDIQMTQSPASLSASLGETVSIECLASEDIYSYLAWYQQKPGKSPQLLIFAANRLQDGVPSRFSGSGSGTQFSLKISGMQPEDEGDYFCLQGSKFPYTFGPGTKLELNGGGGSQVQLVQSGGGVVQPGRSLRLSCKASGYTFTRYTMHWVRQAPGKGLEWIGYINPSRGYTNYNQKVKDRFTISRDNSKNTAFLQMDSLRPEDTGVYFCARYYDDHYSLDYWGQGTPVTVSSGGGGSGGGGSGGGGSDIQMTQSPSSLSASVGDRVTITCSASSSVSYMNWYQQTPGKAPKRWIYDTSKLASGVPSRFSGSGSGTDYTFTISSLQPEDIATYYCQQWSSNPFTFGQGTKLQITR[… human IgG1 Fc with changes …]
B2: Antibody 3 (bispecific antibody)
chain: QVQLVQSGGGVVQPGRSLRLSCKASGYTFTRYTMHWVRQAPGKGLEWIGYINPSRGYTNYNQKVKDRFTISRDNSKNTAFLQMDSLRPEDTGVYFCARYYDDHYSLDYWGQGTPVTVSSGGGGSGGGGSGGGGSDIQMTQSPSSLSASVGDRVTITCSASSSVSYMNWYQQTPGKAPKRWIYDTSKLASGVPSRFSGSGSGTDYTFTISSLQPEDIATYYCQQWSSNPFTFGQGTKLQITRGGGGSQVQLQQSGAELVKPGSSVKISCKASGYTFTRNFIHWIKQQPGNGLEWIGWIFPGDGDTEYNQKFNGKATLTADKSSSTAYMQLSSLTSEDSAVYFCARGNYNYEYFDYWGQGVMVTVSSGGGGSGGGGSGGGGSDIQMTQSPASLSASLGETVSIECLASEDIYSYLAWYQQKPGKSPQLLIFAANRLQDGVPSRFSGSGSGTQFSLKISGMQPEDEGDYFCLQGSKFPYTFGPGTKLELN[… human IgG1 Fc with changes …]
B3: Antibody 4 (bispecific antibody)
chain: QVQLVQSGGGVVQPGRSLRLSCKASGYTFTRYTMHWVRQAPGKGLEWIGYINPSRGYTNYNQKVKDRFTISRDNSKNTAFLQMDSLRPEDTGVYFCARYYDDHYSLDYWGQGTPVTVSSGGGGSGGGGSGGGGSDIQMTQSPSSLSASVGDRVTITCSASSSVSYMNWYQQTPGKAPKRWIYDTSKLASGVPSRFSGSGSGTDYTFTISSLQPEDIATYYCQQWSSNPFTFGQGTKLQITRGGGGSDIQMTQSPASLSASLGETVSIECLASEDIYSYLAWYQQKPGKSPQLLIFAANRLQDGVPSRFSGSGSGTQFSLKISGMQPEDEGDYFCLQGSKFPYTFGPGTKLELNGGGGSGGGGSGGGGSQVQLQQSGAELVKPGSSVKISCKASGYTFTRNFIHWIKQQPGNGLEWIGWIFPGDGDTEYNQKFNGKATLTADKSSSTAYMQLSSLTSEDSAVYFCARGNYNYEYFDYWGQGVMVTVSS[… human IgG1 Fc with changes …]
B4: Antibody 6 (bispecific antibody)
chain: DIQMTQSPSSLSASVGDRVTITCSASSSVSYMNWYQQTPGKAPKRWIYDTSKLASGVPSRFSGSGSGTDYTFTISSLQPEDIATYYCQQWSSNPFTFGQGTKLQITRGGGGSQVQLQQSGAELVKPGSSVKISCKASGYTFTRNFIHWIKQQPGNGLEWIGWIFPGDGDTEYNQKFNGKATLTADKSSSTAYMQLSSLTSEDSAVYFCARGNYNYEYFDYWGQGVMVTVSSGGGGSGGGGSGGGGSGGGGSDIQMTQSPASLSASLGETVSIECLASEDIYSYLAWYQQKPGKSPQLLIFAANRLQDGVPSRFSGSGSGTQFSLKISGMQPEDEGDYFCLQGSKFPYTFGPGTKLELNGGGGSQVQLVQSGGGVVQPGRSLRLSCKASGYTFTRYTMHWVRQAPGKGLEWIGYINPSRGYTNYNQKVKDRFTISRDNSKNTAFLQMDSLRPEDTGVYFCARYYDDHYSLDYWGQGTPVTVSS[… human IgG1 Fc with changes …]
B5: Antibody 105 (bispecific antibody)
chain: QVQLVQSGGGVVQPGRSLRLSCKASGYTFTRYTMHWVRQAPGKGLEWIGYINPSRGYTNYNQKVKDRFTISRDNSKNTAFLQMDSLRPEDTGVYFCARYYDDHYSLDYWGQGTPVTVSSGGGGSGGGGSGGGGSDIQMTQSPSSLSASVGDRVTITCSASSSVSYMNWYQQTPGKAPKRWIYDTSKLASGVPSRFSGSGSGTDYTFTISSLQPEDIATYYCQQWSSNPFTFGQGTKLQITRGGGGSDIQMTQSPSSLSASVGDRVTITCLASEDIYSYLAWYQQKPGKAPKLLIFAANRLQDGVPSRFSGSGSGTDFTLTISSLQPEDFATYYCLQGSKFPYTFGPGTKVDIKGGGGSGGGGSGGGGSQVQLVQSGAEVKKPGSSVKVSCKASGYTFTRNFIHWIRQAPGQGLEWIGWIFPGDADTEYNQKFSGRATITADKSTSTAYMELSSLRSEDTAVYYCARGNYNYEYFDYWGQGTMVTVSS[… human IgG1 Fc with changes …]

Key:
[1] = biological target: T1, Ins 5 type mutant CALR protein on …; experiment: cell-based or functional assay
[2] = biological target: T1, Ins 5 type mutant CALR protein on …; experiment: cell-based or functional assay; remark: listed apart in the source

Binder | EC50 of cytotoxic activity (calcein release, T-LAK effector cells) [1] | EC50 of cytotoxic activity (pM) [2]
B1 | 0.02 nM | –
B2 | 0.019 nM | –
B3 | 0.023 nM | –
B4 | 0.085 nM | –
B5 | – | 26 pM
